According to the supplement of paper PMC4604168 (melanoma cell lines):
The list shows a part of the results. Many values rest on one well or one pass, so single values are uncertain.

How the values were obtained:
Assay in all cases: cell count relative to DMSO control; melanoma cells; higher = more viable cells
Details in all cases: library dose: low library concentration; 72 h
WM115 = system: WM115
WM1716 = system: WM1716
WM1745 = system: WM1745
WM3526 = system: WM3526
WM3619 = system: WM3619
WM451Lu = system: WM451Lu
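Also: cell number obtained by counting DAPI-stained nuclei in high-throughput microscope images with image analysis software, screen run in 1,536-well plates.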

## C[C@]1(c2nc3c(C(N)=O)cccc3[nH]2)CCCN1 [Veliparib] + COc1ccc(COc2ccc(Cc3cnc(N)nc3N)cc2OC)cc1 [GW2580] (first compound 1.4 µM, partner dose 1 µM)
WM115
  cell count: 90.6%
WM1716
  cell count: 97.6%
WM1745
  cell count: 82.2%
WM3526
  cell count: 104%
WM3619
  cell count: 94.5%
WM451Lu
  cell count: 158%

## CO[C@@H]1[C@H](N(C)C(=O)c2ccccc2)C[C@H]2O[C@]1(C)n1c3ccccc3c3c4c(c5c6ccccc6n2c5c31)C(=O)NC4 [Midostaurin] + NCC(=O)Nc1ccc(-n2nc(C(F)(F)F)cc2-c2ccc3c(ccc4ccccc43)c2)cc1 [OSU03012] (first compound 0.08 µM, partner dose 1 µM)
WM115
  cell count: 59%
WM1716
  cell count: 62.2%
WM1745
  cell count: 82.8%
WM3526
  cell count: 44%
WM3619
  cell count: 87.4%
WM451Lu
  cell count: 64.4%

## C[C@]1(c2nc3c(C(N)=O)cccc3[nH]2)CCCN1 [Veliparib] + CO[C@@H]1[C@H](N(C)C(=O)c2ccccc2)C[C@H]2O[C@]1(C)n1c3ccccc3c3c4c(c5c6ccccc6n2c5c31)C(=O)NC4 [Midostaurin] (first compound 1.4 µM, partner dose 0.08 µM)
WM115
  cell count: 73.1%
WM1716
  cell count: 58%
WM1745
  cell count: 83.5%
WM3526
  cell count: 94.8%
WM3619
  cell count: 99.5%
WM451Lu
  cell count: 99.6%

## CN(C)S(=O)(=O)c1ccc2c(c1)/C(=C/c1cc3c([nH]1)CCCC3)C(=O)N2 + O=C(O)C(=O)Nc1sc2c(c1C(=O)O)CCNC2 [TCS401] (first compound 0.4 µM, partner dose 1.66667 µM)
WM115
  cell count: 60.1%
WM1716
  cell count: 88.1%
WM1745
  cell count: 86.3%
WM3526
  cell count: 90.4%
WM3619
  cell count: 77.7%
WM451Lu
  cell count: 99.1%

## C=CCn1c(=O)c2cnc(Nc3ccc(N4CCN(C)CC4)cc3)nc2n1-c1cccc(C(C)(C)O)n1 + Cn1cncc1[C@@](N)(c1ccc(Cl)cc1)c1ccc2c(c1)c(-c1cccc(Cl)c1)cc(=O)n2C [tipifarnib] (first compound 0.02 µM, partner dose 0.01 µM)
WM115
  cell count: 63.7%
WM1716
  cell count: 65.7%
WM1745
  cell count: 74.7%
WM3526
  cell count: 76.7%
WM3619
  cell count: 71.8%
WM451Lu
  cell count: 75.4%

## CO[C@@H]1[C@H](N(C)C(=O)c2ccccc2)C[C@H]2O[C@]1(C)n1c3ccccc3c3c4c(c5c6ccccc6n2c5c31)C(=O)NC4 [Midostaurin] + CCN(CC)CCCCNc1ncc2cc(-c3cc(OC)cc(OC)c3)c(NC(=O)NC(C)(C)C)nc2n1 [PD173074] (first compound 0.08 µM, partner dose 0.1 µM)
WM115
  cell count: 98.5%
WM1716
  cell count: 85.6%
WM1745
  cell count: 99.7%
WM3526
  cell count: 128%
WM3619
  cell count: 126%
WM451Lu
  cell count: 111%

## C[C@]1(c2nc3c(C(N)=O)cccc3[nH]2)CCCN1 [Veliparib] + CN(NC(=O)CC(=O)NN(C)C(=S)c1ccccc1)C(=S)c1ccccc1 [STA4783] (first compound 1.4 µM, partner dose 0.006 µM)
WM115
  cell count: 74.2%
WM1716
  cell count: 79.7%
WM1745
  cell count: 33.2%
WM3526
  cell count: 82.6%
WM3619
  cell count: 36.7%
WM451Lu
  cell count: 89.3%

## Cc1nc(Nc2ncc(C(=O)Nc3c(C)cccc3Cl)s2)cc(N2CCN(CCO)CC2)n1 [dasatanib] + C[C@]1(c2nc3c(C(N)=O)cccc3[nH]2)CCCN1 [Veliparib] (first compound 0.004 µM, partner dose 1.4 µM)
WM115
  cell count: 69.8%
WM1716
  cell count: 71.4%
WM1745
  cell count: 59.7%
WM3526
  cell count: 109%
WM3619
  cell count: 88.1%
WM451Lu
  cell count: 66.6%

## Cc1nc(Nc2ncc(C(=O)Nc3c(C)cccc3Cl)s2)cc(N2CCN(CCO)CC2)n1 [dasatanib] + Cn1cc(/C=C2\C(=O)Nc3cccnc32)c2ccccc21 [GW441756] (first compound 0.004 µM, partner dose 0.4 µM)
WM115
  cell count: 75.2%
WM1716
  cell count: 84.2%
WM1745
  cell count: 66%
WM3526
  cell count: 120%
WM3619
  cell count: 101%
WM451Lu
  cell count: 95%

## NC(=O)Nc1cc(-c2cccc(F)c2)sc1C(=O)N[C@H]1CCCNC1 + O=C(O)c1ccc(-c2c[nH]c3ncc(-c4ccccc4)cc23)cc1C1CCCC1 [GSK650394] (first compound 0.02 µM, partner dose 0.16 µM)
WM115
  cell count: 75.9%
WM1716
  cell count: 81.1%
WM1745
  cell count: 82.5%
WM3526
  cell count: 95.9%
WM3619
  cell count: 43.2%
WM451Lu
  cell count: 111%

## C[C@]1(c2nc3c(C(N)=O)cccc3[nH]2)CCCN1 [Veliparib] + NCC(=O)Nc1ccc(-n2nc(C(F)(F)F)cc2-c2ccc3c(ccc4ccccc43)c2)cc1 [OSU03012] (first compound 1.4 µM, partner dose 1 µM)
WM115
  cell count: 85.4%
WM1716
  cell count: 89.8%
WM1745
  cell count: 97.5%
WM3526
  cell count: 49.5%
WM3619
  cell count: 89%
WM451Lu
  cell count: 66.9%

## NC(=O)Nc1cc(-c2cccc(F)c2)sc1C(=O)N[C@H]1CCCNC1 + CCc1ccc(CCOc2ccc(CC3SC(=O)NC3=O)cc2)nc1 [pioglitazone] (first compound 0.02 µM, partner dose 2 µM)
WM115
  cell count: 96.7%
WM1716
  cell count: 103%
WM1745
  cell count: 101%
WM3526
  cell count: 88.2%
WM3619
  cell count: 64.2%
WM451Lu
  cell count: 100%

## C[C@]1(c2nc3c(C(N)=O)cccc3[nH]2)CCCN1 [Veliparib] + Cn1cncc1[C@@](N)(c1ccc(Cl)cc1)c1ccc2c(c1)c(-c1cccc(Cl)c1)cc(=O)n2C [tipifarnib] (first compound 1.4 µM, partner dose 0.01 µM)
WM115
  cell count: 67%
WM1716
  cell count: 64.9%
WM1745
  cell count: 76.2%
WM3526
  cell count: 85.3%
WM3619
  cell count: 105%
WM451Lu
  cell count: 90.2%

## OCCn1cc(-c2cnc3nnn(Cc4ccc5ncccc5c4)c3n2)cn1 + O=C(O)c1ccc(-c2c[nH]c3ncc(-c4ccccc4)cc23)cc1C1CCCC1 [GSK650394] (first compound 1 µM, partner dose 0.16 µM)
WM115
  cell count: 103%
WM1716
  cell count: 97.2%
WM1745
  cell count: 97.9%
WM3526
  cell count: 105%
WM3619
  cell count: 121%
WM451Lu
  cell count: 89.5%

## C=CCn1c(=O)c2cnc(Nc3ccc(N4CCN(C)CC4)cc3)nc2n1-c1cccc(C(C)(C)O)n1 + O=C(O)c1ccc(-c2c[nH]c3ncc(-c4ccccc4)cc23)cc1C1CCCC1 [GSK650394] (first compound 0.02 µM, partner dose 0.16 µM)
WM115
  cell count: 83.5%
WM1716
  cell count: 80.6%
WM1745
  cell count: 75.5%
WM3526
  cell count: 80.6%
WM3619
  cell count: 44.3%
WM451Lu
  cell count: 129%

## CN(C)S(=O)(=O)c1ccc2c(c1)/C(=C/c1cc3c([nH]1)CCCC3)C(=O)N2 + NCC(=O)Nc1ccc(-n2nc(C(F)(F)F)cc2-c2ccc3c(ccc4ccccc43)c2)cc1 [OSU03012] (first compound 0.4 µM, partner dose 1 µM)
WM115
  cell count: 82.9%
WM1716
  cell count: 86%
WM1745
  cell count: 96.7%
WM3526
  cell count: 50.7%
WM3619
  cell count: 95.9%
WM451Lu
  cell count: 58.7%

## C[C@]1(c2nc3c(C(N)=O)cccc3[nH]2)CCCN1 [Veliparib] + C=CCn1c(=O)c2cnc(Nc3ccc(N4CCN(C)CC4)cc3)nc2n1-c1cccc(C(C)(C)O)n1 [MK1775] (first compound 1.4 µM, partner dose 0.02 µM)
WM115
  cell count: 74.1%
WM1716
  cell count: 66.5%
WM1745
  cell count: 75.9%
WM3526
  cell count: 103%
WM3619
  cell count: 64.5%
WM451Lu
  cell count: 93.9%

## Cc1nc(Nc2ncc(C(=O)Nc3c(C)cccc3Cl)s2)cc(N2CCN(CCO)CC2)n1 [dasatanib] + CC(C)(C)c1cnc(CSc2cnc(NC(=O)C3CCNCC3)s2)o1 [SNS-032] (first compound 0.004 µM, partner dose 0.01 µM)
WM115
  cell count: 77.3%
WM1716
  cell count: 60.7%
WM1745
  cell count: 73.8%
WM3526
  cell count: 110%
WM3619
  cell count: 103%
WM451Lu
  cell count: 64.6%

## C[C@]1(c2nc3c(C(N)=O)cccc3[nH]2)CCCN1 [Veliparib] + CCCCCCCCCCCC1=C(O)C(=O)C=C(O)C1=O [Embelin] (first compound 1.4 µM, partner dose 1.2 µM)
WM115
  cell count: 93.7%
WM1716
  cell count: 85.6%
WM1745
  cell count: 77.2%
WM3526
  cell count: 116%
WM3619
  cell count: 132%
WM451Lu
  cell count: 84.8%

## OCCn1cc(-c2cnc3nnn(Cc4ccc5ncccc5c4)c3n2)cn1 + Cn1cncc1[C@@](N)(c1ccc(Cl)cc1)c1ccc2c(c1)c(-c1cccc(Cl)c1)cc(=O)n2C [tipifarnib] (first compound 1 µM, partner dose 0.01 µM)
WM115
  cell count: 82.6%
WM1716
  cell count: 74.4%
WM1745
  cell count: 88.7%
WM3526
  cell count: 92.6%
WM3619
  cell count: 80.9%
WM451Lu
  cell count: 99%

## C=CCn1c(=O)c2cnc(Nc3ccc(N4CCN(C)CC4)cc3)nc2n1-c1cccc(C(C)(C)O)n1 + Oc1nc(-c2ccc(C(F)(F)F)cc2)nc2c1CSCC2 [XAV939] (first compound 0.02 µM, partner dose 2 µM)
WM115
  cell count: 79.8%
WM1716
  cell count: 86.2%
WM1745
  cell count: 65%
WM3526
  cell count: 82.8%
WM3619
  cell count: 85.6%
WM451Lu
  cell count: 100%

## NCC(=O)Nc1ccc(-n2nc(C(F)(F)F)cc2-c2ccc3c(ccc4ccccc43)c2)cc1 + COC(=O)c1sccc1S(=O)(=O)Nc1ccc(Nc2ccccc2)cc1OC [GSK0660] (first compound 1 µM, partner dose 1 µM)
WM115
  cell count: 108%
WM1716
  cell count: 99.7%
WM1745
  cell count: 97.5%
WM3526
  cell count: 42.9%
WM3619
  cell count: 104%
WM451Lu
  cell count: 63.1%

## NCC(=O)Nc1ccc(-n2nc(C(F)(F)F)cc2-c2ccc3c(ccc4ccccc43)c2)cc1 + Cn1cc(/C=C2\C(=O)Nc3cccnc32)c2ccccc21 [GW441756] (first compound 1 µM, partner dose 0.4 µM)
WM115
  cell count: 99.9%
WM1716
  cell count: 110%
WM1745
  cell count: 84.4%
WM3526
  cell count: 38.8%
WM3619
  cell count: 125%
WM451Lu
  cell count: 46.5%

## NCC(=O)Nc1ccc(-n2nc(C(F)(F)F)cc2-c2ccc3c(ccc4ccccc43)c2)cc1 + N#Cc1c(O)c2c(-c3ccc(-c4ccccc4O)cc3)csc2[nH]c1=O [A769662] (first compound 1 µM, partner dose 2 µM)
WM115
  cell count: 97%
WM1716
  cell count: 100%
WM1745
  cell count: 98.7%
WM3526
  cell count: 58.9%
WM3619
  cell count: 71.6%
WM451Lu
  cell count: 59.6%

## CO[C@@H]1[C@H](N(C)C(=O)c2ccccc2)C[C@H]2O[C@]1(C)n1c3ccccc3c3c4c(c5c6ccccc6n2c5c31)C(=O)NC4 [Midostaurin] + Oc1nc(-c2ccc(C(F)(F)F)cc2)nc2c1CSCC2 [XAV939] (first compound 0.08 µM, partner dose 2 µM)
WM115
  cell count: 65.6%
WM1716
  cell count: 48.6%
WM1745
  cell count: 61%
WM3526
  cell count: 97.6%
WM3619
  cell count: 89.8%
WM451Lu
  cell count: 93.8%

## CN(C)S(=O)(=O)c1ccc2c(c1)/C(=C/c1cc3c([nH]1)CCCC3)C(=O)N2 + COc1ccc(-c2ccc3c(N4CCOCC4)nc(N4C[C@@H](C)O[C@@H](C)C4)nc3n2)cc1CO [KU0063794] (first compound 0.4 µM, partner dose 0.02 µM)
WM115
  cell count: 68.3%
WM1716
  cell count: 103%
WM1745
  cell count: 87.6%
WM3526
  cell count: 92.9%
WM3619
  cell count: 86.8%
WM451Lu
  cell count: 112%
